Results reported in PubChem BioAssay AID1963576 (National Center for Advancing Translational Sciences (NCATS), 2024).
Out of some 46,000 compounds screened, about 60 (0.1%) were called active. Roughly 3% stayed inconclusive and do not appear here. Calls come from the whole dose curve; as a rule, active = well fitted inhibition curve with a large enough effect; inconclusive = small, poorly fitted or top-dose-only effect; inactive = no such curve, though single readings can be large or run the other way. This is one part of the list.

assay: Primary qHTS assay for Inhibitors of ovarian cancer metastasis using an organotypic tumor microenvironment (TME) model.; note: nearly all actives have a fitted effect of over 65% in size;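 for activity change, negative = inhibition: plate controls were DMSO wells for no effect and tomatine positive control wells for full effect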; details: SKOV3ip1-GFP adhesion/invasion on 3D omental model, fluorescence; series mostly up to 45.8 µM; activity change, negative = inhibition: at the top concentration
In short: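 qHTS, 4-pt dose (0.36-46 umol/L); SKOV3ip1-GFP, 1,200 cells/well, no FBS; primary omental fibroblast/mesothelial co-culture 48 h pre-grown; 2 h RT + 16 h 37 C; PBS wash, 4% PFA; GFP count 488/509 nm.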

outcome, inactive:
COc1ccc2nc(N(Cc3cccnc3)C(=O)c3ccc4c(c3)OCCO4)sc2c1, Cc1ccc(CNS(=O)(=O)c2ccc3c(c2)CCN3S(C)(=O)=O)cc1, O=C(COc1ccccc1Cl)Nc1ccc2oc(-c3ccccc3F)nc2c1, Cc1ccc(NC(=O)Cn2c(=O)n(CCCCC(=O)NCCc3ccccc3)c(=O)c3ccccc32)c(C)c1, Cc1ccc(NC(=O)C(NS(=O)(=O)c2ccc3c(c2)CCC(=O)N3)c2ccccc2)cc1C (stereo not given), COc1ccc(NC(=O)C2CCN(S(=O)(=O)c3ccc4c(c3)CCCC(=O)N4)CC2)cc1Cl, COc1ccc(NC(=O)c2nnn(Cc3nc(-c4cc(Br)ccc4OC)oc3C)c2C)cc1, COc1ccc(Nc2cc(C(=O)NC3CCCC3)c3ccccc3n2)c(OC)c1, CCCCNC(=O)c1cc(Sc2ccc(OCC)cc2)nc2ccccc12, Cc1ccc(C)c(Cn2c(=O)n(CCCCC(=O)NCc3ccccc3Cl)c(=O)c3ccccc32)c1, CCn1ccc2cc(S(=O)(=O)N3CCCN(C(=O)NCC(C)C)CC3)ccc21, Cc1ccc(-c2nc3ccccc3n3c(-c4ccccc4)c4c(=O)n(C)c(=O)n(C)c4c23)cc1, COc1cc(/C=C(\C#N)c2nc3ccccc3c(=O)[nH]2)cc(OC)c1OC, CCn1cc(C(=O)NCc2ccc(C)cc2)c(=O)c2cc(S(=O)(=O)N3CCC(C)CC3)ccc21, CCN(C(=O)CN(C)S(=O)(=O)c1ccc2c(c1)c(=O)n(C)c(=O)n2C)c1ccc(OC)cc1, Cn1c(=NC(=O)c2ccc3c(c2)OCCO3)sc2cc(S(C)(=O)=O)ccc21, N#Cc1ccc(CN2C(=O)c3ccccc3Sc3ccc(C(=O)OCc4ccco4)cc32)cc1, Cc1ccc(C2c3c(oc4ccccc4c3=O)C(=O)N2c2ccc(C)cn2)cc1 (stereo not given), Cc1ccc(N2C(=O)CCSC23C(=O)N(Cc2ccccc2)c2ccccc23)cc1F (stereo not given), COc1ccc(NC(=O)CC2C(=O)N(c3ccc(F)cc3)C(=O)N2Cc2ccco2)cc1 (stereo not given), Cc1nn2c(-c3ccco3)ccnc2c1-c1ccc(F)cc1, COc1cc(Nc2ncc3c(n2)CCN(Cc2cc(Br)cs2)C3)cc(OC)c1, Cc1c(-c2nc(-c3ccccc3)no2)nnn1-c1cccc(C(F)(F)F)c1, Cc1ccc(CSc2nc3c([nH]c4ccccc43)c(=O)n2C)cc1, COc1ccc(NC(=O)c2cccn2-c2nnc(N3CCCCC3)s2)cc1Cl, Cn1c(=O)c2c(nc3n(-c4ccc(O)cc4)c(-c4ccc(Br)cc4)cn23)n(C)c1=O, CC1=C(C(=O)Nc2cccnc2)C(c2ccc(Cl)cc2)n2nc(-c3ccccc3)nc2N1 (stereo not given)

Activity change, negative = inhibition, inactive:
COCCNC(=O)CCCn1c(=O)c2cc(OC)c(OC)cc2n(CC(=O)Nc2ccc(F)cc2)c1=O -2.27%, CCCCOC(=O)c1ccc(NC(=O)c2cc3c(=O)n4cccc(C)c4nc3n2C)cc1 2.92%, Cc1nn2c(=O)cc(COC(=O)c3ccc(NC(=O)C4CCCCC4)cc3)nc2s1 -15.7%, O=C(Nc1ccc(F)cc1F)c1cc(-c2ccccc2O)no1 0.574%, COc1cc(NC(=O)Cn2nc(C(F)(F)F)c3c2CCCC3)c(OC)cc1Cl -6.16%, CCOc1ccc(CNC(=O)c2ccc(-c3nc(CS(=O)(=O)c4ccccc4)c(C)o3)cc2)cc1 -25.4%, O=C(CSc1nc(=O)[nH]c2c1CCCC2)Nc1ccccc1C(F)(F)F -0.644%, CCOC(=O)C1CCN(CCC(=O)Nc2ccc(Br)c(C)c2)CC1 9.4%, Cc1oc(C)c2c(=O)cc(-c3ccc4c(c3)OCO4)cc(OC(=O)c3ccccc3Br)c12 -17.4%, CCOc1cccc(C2c3c(oc4ccc(F)cc4c3=O)C(=O)N2CCc2ccc(OC)cc2)c1 (stereo not given) 3.22%, Cc1ccc(CN(C(=O)Nc2cccc(Cl)c2)c2ccccn2)cc1 -0.058%, CCNC(=O)Cn1c(-c2cccs2)cc2ccccc21 6.67%, COc1ccccc1N1CCN(c2csc3ccc(Cl)cc3c2=O)CC1 -3.27%, CCOc1ccccc1NC(=O)Cn1ccn(-c2ccccc2)c(=O)c1=O -3.96%, CCn1ccc2cc(S(=O)(=O)N3CCC(C(=O)NCc4cccc(C)c4)CC3)ccc21 -8.73%, COc1cc(OC)c(NC(=O)c2cc(CN3CCOCC3)on2)cc1Cl 19%, COc1ccc(S(=O)(=O)N2CCN(c3ccccc3OC)CC2)cc1-c1noc(C)n1 -0.665%, Cc1ccc(Cn2c(-c3ccccc3)nc3ccccc32)cc1 -14.2%, O=C(CN1C(=O)C2CCCCN2c2ccc(C(=O)N3CCCC3)cc21)NCc1cccc(Cl)c1 (stereo not given) -1.8%, Cc1ccc(-c2c(C(=O)Nc3ccc(F)c(F)c3)oc(=O)c3ccccc23)cc1 1.32%, O=C(NCCSCc1ccc(Cl)cc1)C1CCN(S(=O)(=O)Cc2ccccc2)CC1 -8.98%, CCOc1ccc(CNS(=O)(=O)c2c(C(=O)N3CCCCCC3)c(C)n(C)c2C)cc1OC -9.44%, O=C(Nc1c(Cl)cncc1Cl)c1ccc(OC(F)F)c(OCC2CC2)c1 37.5%, Cc1ccc(Cl)c2sc(NC(=O)CS(=O)(=O)c3ccc(Cl)cc3)nc12 3.91%, CCN(CC)S(=O)(=O)c1ccc2c(c1)c(=O)c(C(=O)NCc1ccccc1)cn2C 5.14%, Cc1cccc(N2CCN(C(=O)CSCc3ccc(F)cc3)CC2)c1C 20.5%, CCCCN(C)C(=O)C1CCCN(c2ncnc3onc(-c4ccc(F)cc4)c23)C1 (stereo not given) 10.5%, COc1ccc(-c2cn3nc(N4CCC(C(=O)Nc5cccc(Cl)c5)CC4)sc3n2)cc1 7.09%, Cc1ccc(CNC(=O)Cc2coc3cc(C)cc(C)c23)cc1 1.82%, Cc1ccc(NC(=O)Nc2nnc(N3CCCC3)s2)c(C)c1 13.8%, CCOc1cccc(CC(=O)Nc2ccc3nc(N4CCCCC4)cc(C)c3c2)c1OCC -15.7%, CC(=O)N1CCCc2cc(S(=O)(=O)N3CCC(C(=O)NCc4ccc(N(C)C)cc4)CC3)ccc21 -2.61%, COc1cc(CN(CC2CCCO2)C(=O)c2ccc(F)cc2)cc(OC)c1OC (stereo not given) 6.08%, O=C(NCc1ccccc1)c1ccc(NC(=O)c2nsc3ccccc23)cc1 -26.9%, COc1ccccc1CNC(=O)c1ccc(CS(=O)(=O)c2ccccc2C)o1 -4.93%, COc1ccc(CNC(=O)CCC(=O)N2CC3CCCN3c3ccccc32)cc1 (stereo not given) 4.17%, CC(C)c1nc2ccc(C(=O)NCCCN3CCN(c4ccccc4F)CC3)cc2o1 -12%, COC(=O)c1ccc(-n2nnc(-c3nc(-c4ccc5c(c4)OCO5)no3)c2C)cc1 -4.31%, CC(=O)NCCNc1nc2c(S(=O)(=O)c3ccc(C)c(C)c3)nnn2c2ccc(Cl)cc12 0.792%, Cc1cc(Br)ccc1NC(=O)CCS(=O)(=O)c1cccc2nsnc12 8.42%, CCOC(=O)c1ccc(NC(=O)C2CCCN(c3ccc(Sc4ccc(C)cc4)nn3)C2)cc1 (stereo not given) 0.923%, CCC(=O)N1CCc2cc(S(=O)(=O)NCCC(=O)NCc3ccccc3Cl)ccc21 -6.66%, Cc1ccccc1-c1noc(C(C)NC(=O)c2ccco2)n1 (stereo not given) 147%, COc1ccccc1CNC(=O)C(CC(C)C)NS(=O)(=O)c1ccc2c(c1)oc(=O)n2C (stereo not given) 21.5%, CCOc1ccc2nc(NC(=O)CS(=O)(=O)c3ccc(Cl)cc3)sc2c1 1.69%, CCCS(=O)(=O)Nc1ccc(F)c(C(=O)c2c[nH]c3ncc(-c4ccc(Cl)cc4)cc23)c1F -9.38%, Cc1ccc(C(C)C)c(OCC(=O)Nc2ccc(S(=O)(=O)Nc3onc(C)c3C)cc2)c1 -5.41%, CCCCOC(=O)c1ccc(NC(=O)CSc2nc3c(c(=O)[nH]2)CCCC3)cc1 1.21%, Cn1c(-n2cccc2)c(-c2c(-c3ccccc3)[nH]c3c2c(=O)n(C)c(=O)n3C)c(=O)n(C)c1=O 5.24%, Cc1ccc(-c2nnc(C3CCN(S(=O)(=O)c4ccc(C)c(C)c4)CC3)o2)cc1 -5.95%, CCOc1ccccc1NC(=O)CN1C(=O)CC(c2ccc(OC)c(OC)c2)Sc2ccccc21 (stereo not given) 16.2%, O=C(NCc1ccccc1)c1nn(-c2ccccc2)nc1CO -9.49%, COc1ccc(OC)c(/C=C(/C#N)c2nc(-c3ccc(-c4ccccc4)cc3)cs2)c1 3.85%, Cc1ccc(CNC(=O)Cn2c(=O)n(-c3ccc(Cl)cc3)c(=O)c3c(C)c(C)sc32)cc1 -8.99%, O=C(NCc1ccc(F)cc1)c1cc2c(=O)n3ccccc3nc2s1 -1.59%, Cc1cc(C)cc(NS(=O)(=O)c2ccc3[nH]cc(C(=O)N(C)Cc4ccccc4)c(=O)c3c2)c1 -28.3%, CCN1CCOC(=O)C1CC(=O)Nc1cc(C)cc(C)c1 (stereo not given) -0.329%, Cc1ccccc1CN1C(=O)c2ccccc2Sc2ccc(C(=O)NC(C)c3ccccc3)cc21 (stereo not given) -12.4%, COc1ccccc1CNC(=O)c1ccc2c(c1)nc(C)n2-c1ccccc1OC -12.9%, Cc1cc(Nc2ccc(F)cc2)n2c(nc3ccccc32)c1C#N -16.8%, COC(=O)c1ccccc1NC(=O)c1ccc2c(c1)CCN2S(C)(=O)=O 1.88%, CCCCNc1nc2c(S(=O)(=O)c3ccc(C)c(C)c3)nnn2c2ccsc12 3.52%, Cc1ccc(NC(=O)Cn2c(=O)n(CCCCC(=O)NCc3ccccc3Cl)c(=O)c3ccccc32)cc1C -0.308%, CCOc1ccc(NC(=O)Cn2c(C)cc3ccccc3c2=O)cc1 7.15%, Cc1nc2ccccn2c(=O)c1NC(=O)c1ccc(C(F)(F)F)cc1 -5.94%, COc1ccccc1NC(=O)CN1CCCN(S(=O)(=O)c2ccc(Br)cc2)CC1 -3.8%, COc1ccc(C(=O)Nc2cccc(OCc3cc(=O)n4c5c(sc4n3)CCCC5)c2)cc1 -20.4%, COc1ccc(OC)c(S(=O)(=O)NCc2cccn2Cc2cccc(C)c2)c1 5.43%
